This note sets out measurements from publication PMC12136788.

This is one part of the list.

To fix the notation:
B1: chr11:77378495:77378496:-_ENSG00000048649_ENST00000308488|hu_mus|FALSE|FALSE (ssRNA)
RNA: GGGAGUUCUACAGUCCGACGAUCUGAAUAGUCAUCUGUGCUUCGGCCCCGUUUUCGAACAGAUCGCUUCGAUUCUUUUGUUAGCUCAUCAUCUUCAGAGUUCUUGGACAUAAAGCUCUCUUCACUCUCUGAGCUGGAAAGUCUCAACAGAGGAUUGAGCAUCA
B2: chr4:115894766:115894767:+_ENSMUSG00000028698_ENSMUST00000030464|mus_hu|mus_mus_mus_hu_True|18_28 (ssRNA)
RNA: GGGAGUUCUACAGUCCGACGAUCUUCCACACGGAAAUGUACUUCGGGUUUUCCAACGGCCAGUACCAGUCCGGCCAAACUACCCGAACAGGGUCCUCCCCCUCUCUUCUCUCCUCCUAAAGCACCCGCCCCCGAACUUUCAAGCAACAGAGGAUUGAGCAUCA
B3: chr11:46405157:46405158:+_ENSG00000110492_ENST00000395566|hu_hu|hu_hu_hu_mus_False|8_98 (ssRNA)
RNA: GGGAGUUCUACAGUCCGACGAUCCCCUCCCCACUUUGGCUGGGGAGUGUGGGCGUGAGAGGACAGGCGUGAUUGACAGAGCUGACAGGAAGACAAAAGGCACUGGUGGGUUAUAUCUUGGGCCUGUGAGAGGGAGGGGCUCCGCAACAGAGGAUUGAGCAUCA
B4: chr1:154246031:154246032:+_ENSG00000143575_ENST00000328703|hu_hu|motif|central (ssRNA)
RNA: GGGAGUUCUACAGUCCGACGAUCACCUGGAAGUUCAGGAGGAUGGGAAGGCAAGGUCCAGGCCCCCAUAUCGCUGAAGAUGCGGUUGAAAUCUCGUACUAGGUCAUCAAAGCCGAAGUUAUCGUGGAAACGUAUCCCUCCUCCCAACAGAGGAUUGAGCAUCA
B5: chr5:95152273:95152274:-_ENSG00000173221_ENST00000237858|hu_mus|FALSE|FALSE (ssRNA)
RNA: GGGAGUUCUACAGUCCGACGAUCCAGCCGAGUCAUCAGCUCCCCAGUCUGUUGCAUGGAGAUUAGAUCACUGCAUCCGCCUAUGCAGUCUUUACCUAUGAAGACCCGAGGAACUGUUCUCGCUCCGGUGAGCUGUUGUAAAUACAACAGAGGAUUGAGCAUCA
B6: chrX:20248820:20248821:+_ENSMUSG00000001924_ENSMUST00000001989|mus_mus|mus_mus_mus_hu_True|8_88 (ssRNA)
RNA: GGGAGUUCUACAGUCCGACGAUCGGCGAAGUCCGUCACCACAAAGUCAGGCUCUACCAGUGAGGCCACCAAGGAUUUAAAGCUAAUCUUCUUAGGUACUUUGACCUGACUGACGAUGCCUCCACGGAUGUAGUCAGAGAAGUUCAACAGAGGAUUGAGCAUCA

The assay addresses T1, UNK ZnF1-3 (human, UniProt Q9C0B0 31-174).
T1 sequence: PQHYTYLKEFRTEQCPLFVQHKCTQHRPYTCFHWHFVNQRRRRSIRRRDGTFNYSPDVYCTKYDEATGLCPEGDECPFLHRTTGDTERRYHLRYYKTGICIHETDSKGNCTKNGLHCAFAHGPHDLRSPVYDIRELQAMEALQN
As to the kind of experiment: nsRBNS (natural sequence RNA bind-n-seq); RBNS binding buffer (assumed for nsRBNS): 25 mM Tris pH 7.5, 150 mM KCl, 3 mM MgCl2, 0.01% Triton X-100, 500 ug/ml BSA, 20 U/ml SUPERase-In, 4 C; UNK is unkempt and MSI1 is Musashi-1; names of the RNAs are library labels; protein concentration not given here; high values mean tight binding.
As to B1, the binding signal is 0.519 enrichment R.

B2 showed a binding signal of 0.815 enrichment R. On to B3, for which the binding signal is 2.67 enrichment R. Consider B4, for which the binding signal was 1.31 enrichment R. The same measure for B5: 0.989 enrichment R; for B6: 1.07 enrichment R.
